Measured values: EP4814014A1, “BINDING MOLECULE AND ANTIBODY-DRUG CONJUGATE AND USE THEREOF” (priority 2023, dated 2025)

Key:
[1] = molecular target: T1, human EGFR-his (ECD, Met1-Ser645) (human, UniProt P00533 part only); experiment: SPR, antigen amine-coupled on GLM chip, antibody injected, 1:1 model
T1 construct: range 1-645; Bought; range as printed includes Met1

[2] = molecular target: T2, cynomolgus monkey EGFR-his (ECD, Met1-Ser645) (cynomolgus monkey, UniProt A0A2K5WK39 1-645); experiment: as above
T2 construct: range 1-645; Bought; range as printed includes Met1

[3] = molecular target: T3, cynomolgus monkey cMet-his (ECD, Met1-Thr932) (cynomolgus monkey, UniProt A0A2K5UM36 25-932); experiment: as above
T3 construct: Bought; range as printed includes Met1

[4] = molecular target: T4, human cMet-his (ECD, Met1-Thr932) (human, UniProt P08581 25-932); experiment: as above
T4 construct: Bought; range as printed includes Met1

EBC-1 [5] = experiment: FACS binding of ADCs to EBC-1; format: cell-based, human; settings: ADC, 200 nM or 40 nM, 5-fold diluted; FIG. 17
NCI-H1975 [6] = experiment: FACS binding of ADCs to NCI-H1975; format: cell-based, human; settings: ADC, 200 nM or 40 nM, 5-fold diluted; FIG. 17
EBC-1 [7] = experiment: Cell killing assay of ADCs (CCK8), EBC-1; format: cell-based, human; settings: Table 10A; Target cell: EBC-1; 3-5 days
NCI-H1975 [8] = experiment: Cell killing assay of ADCs (CCK8), NCI-H1975; format: cell-based, human; settings: Table 10A; Target cell: NCI-H1975; 3-5 days
MDA-MB-468 = experiment: Cell killing assay of ADCs (CCK8), MDA-MB-468; format: cell-based; settings: Table 10A; Target cell: MDA-MB-468; 3-5 days
CDX models = experiment: In vivo efficacy of ADCs in CDX mouse models (overall); set-up: species or system BALB/c nu/nu mice; settings: single intravenous bolus injection on D0; better than ABBV399 and AZD9592; FIG. 21

T4 sequence (P08581 25-932): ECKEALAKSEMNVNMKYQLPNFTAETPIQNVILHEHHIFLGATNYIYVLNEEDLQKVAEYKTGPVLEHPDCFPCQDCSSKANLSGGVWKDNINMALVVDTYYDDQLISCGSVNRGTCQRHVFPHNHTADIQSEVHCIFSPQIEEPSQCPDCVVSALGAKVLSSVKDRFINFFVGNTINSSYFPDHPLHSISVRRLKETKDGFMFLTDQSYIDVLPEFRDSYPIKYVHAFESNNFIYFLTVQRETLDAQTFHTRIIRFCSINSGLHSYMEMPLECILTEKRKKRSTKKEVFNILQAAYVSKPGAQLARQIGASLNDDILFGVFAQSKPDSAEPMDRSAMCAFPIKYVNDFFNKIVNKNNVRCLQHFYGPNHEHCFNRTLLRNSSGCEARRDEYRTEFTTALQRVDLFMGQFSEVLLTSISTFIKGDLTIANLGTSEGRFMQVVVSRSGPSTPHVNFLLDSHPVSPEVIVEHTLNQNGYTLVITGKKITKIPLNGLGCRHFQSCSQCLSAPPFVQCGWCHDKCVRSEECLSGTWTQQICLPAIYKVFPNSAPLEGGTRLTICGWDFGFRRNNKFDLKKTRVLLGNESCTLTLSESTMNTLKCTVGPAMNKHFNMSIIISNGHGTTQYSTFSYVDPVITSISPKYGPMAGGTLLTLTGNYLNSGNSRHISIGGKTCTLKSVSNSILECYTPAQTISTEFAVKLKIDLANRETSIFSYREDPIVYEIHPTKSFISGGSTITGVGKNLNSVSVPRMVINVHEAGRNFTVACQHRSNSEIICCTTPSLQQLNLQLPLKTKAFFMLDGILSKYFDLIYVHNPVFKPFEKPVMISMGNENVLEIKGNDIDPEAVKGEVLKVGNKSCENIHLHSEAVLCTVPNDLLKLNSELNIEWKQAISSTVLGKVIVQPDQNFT

B1: V-26-Fc (bispecific antibody)
chain 1: QVQLVESGGGLVQPGGSLRLSCAASGRTGSLHAMGWFRQAPGKERERVATLQLSDVSAVTADSVKGRFTISTDNSKNSVYLQMNSLRAEDTAVYYCTASRSPSGIRYYKPDYWGQGTLVTVSS[human IgG1 Fc with changes not printed]
chain 2: QSQLAESGGGLVQSGGSLGLSCVASGFTISRSIMSWYRQPPGKERDWVASIGSAGNTNYVDSVKGRFTISRDVAKNTVYLQMNSLKPEDTAVYYCKTTLAVSFSEYWGQGTQVTVSSGGGGSGGGGSEVQLVESGGGLIQAGGSLRLSCTASGNIFSSYHMGWFRQAPGKQREFIAYITTREITNYADSVKGRFTISRDNSKNTVYLQMNNLRSEDTAVYYCIADQSREIRRSWGQGTLVTVSS[human IgG1 Fc with changes not printed]
notes: Double-chain trispecific anti-EGFR/cMet antibody
[1]
  Kd: 242000 nM
  koff: 0.0988 s⁻¹
[2]
  Kd: 3740 nM
  koff: 0.219 s⁻¹
  kon: 58700 M⁻¹ s⁻¹
[3]
  Kd: 0.73 nM
  koff: 0.000123 s⁻¹
  kon: 168000 M⁻¹ s⁻¹
[4]
  Kd: 1.34 nM
  koff: 9.7e-05 s⁻¹
  kon: 72600 M⁻¹ s⁻¹

B2: V-26-Fc-PEG-EVC-MMAE: ADC of antibody V-26-Fc and linker-payload Mal-PEG8-EVC-PAB-MMAE (conjugate)
chain 1: QVQLVESGGGLVQPGGSLRLSCAASGRTGSLHAMGWFRQAPGKERERVATLQLSDVSAVTADSVKGRFTISTDNSKNSVYLQMNSLRAEDTAVYYCTASRSPSGIRYYKPDYWGQGTLVTVSS[human IgG1 Fc with changes not printed]
chain 2: QSQLAESGGGLVQSGGSLGLSCVASGFTISRSIMSWYRQPPGKERDWVASIGSAGNTNYVDSVKGRFTISRDVAKNTVYLQMNSLKPEDTAVYYCKTTLAVSFSEYWGQGTQVTVSSGGGGSGGGGSEVQLVESGGGLIQAGGSLRLSCTASGNIFSSYHMGWFRQAPGKQREFIAYITTREITNYADSVKGRFTISRDNSKNTVYLQMNNLRSEDTAVYYCIADQSREIRRSWGQGTLVTVSS[human IgG1 Fc with changes not printed]
EBC-1 [5]
  binding to EBC-1 cells: able to bind
NCI-H1975 [6]
  binding to NCI-H1975 cells: able to bind
EBC-1 [7]
  IC50: 0.132 nM
NCI-H1975 [8]
  IC50: 0.047 nM
MDA-MB-468
  IC50: 0.484 nM
CDX models
  tumor inhibition effects: strong tumor inhibition effects

B3: V-23-Fc (bispecific antibody)
chain 1: EVQLLESGGGLVQPGGSLRLSCAASGLTFSYYAMAWFRQAPGKEREFVAAINWNQGNTYNTDSVKGRFTISRDNSKNTVYLQMNSLTPEDTAVYYCAVRYNQASYLVARSSDYNYWGQGTLVTVSS[human IgG1 Fc with changes not printed]
chain 2: QSQLVESGGGLVKPGGSLRLSCVASGFTISRSIMSWYRQAPGKERDWVASIGSAGNTNYVDSVKGRFTISRDNAKNSLYLQMNSLRAEDTAVYYCKTTLAVSFSEYWGQGTLVTVSSGGGGSGGGGSEVQLVESGGGLVQPGGSLRLSCTASGNIFSSYHMGWFRQAPGKQREFIAYITTREITNYADSVKGRFTISRDNSKNTLYLQMNSLRAEDTAVYYCIADQSREIRRSWGQGTLVTVSS[human IgG1 Fc with changes not printed]
notes: as for B1
[1]
  Kd: 9.63 nM
  koff: 0.000202 s⁻¹
  kon: 21000 M⁻¹ s⁻¹
[2]
  Kd: 11.1 nM
  koff: 0.000314 s⁻¹
  kon: 28200 M⁻¹ s⁻¹
[3]
  Kd: 2.33 nM
  koff: 0.000225 s⁻¹
  kon: 96800 M⁻¹ s⁻¹
[4]
  Kd: 75.2 nM
  koff: 0.00215 s⁻¹
  kon: 28600 M⁻¹ s⁻¹

B4: V-20-Fc-PEG-EVC-MMAE: ADC of antibody V-20-Fc and linker-payload Mal-PEG8-EVC-PAB-MMAE (conjugate)
chain 1: EVQLVESGGGLVQPGGSLRLSCSASGTIIGTYTMAWYRQAPGKQREMVAIITPGGGSHHADSVKGRFTISRDNSKNTLYLQMSSLRAEDTAVYYCNAKARWGTTEYWGQGTLVTVSS[human IgG1 Fc with changes not printed]
chain 2: QSQLVESGGGLVKPGGSLRLSCVASGFTISRSIMSWYRQAPGKERDWVASIGSAGNTNYVDSVKGRFTISRDNAKNSLYLQMNSLRAEDTAVYYCKTTLAVSFSEYWGQGTLVTVSSGGGGSGGGGSEVQLVESGGGLVQPGGSLRLSCTASGNIFSSYHMGWFRQAPGKQREFIAYITTREITNYADSVKGRFTISRDNSKNTLYLQMNSLRAEDTAVYYCIADQSREIRRSWGQGTLVTVSS[human IgG1 Fc with changes not printed]
EBC-1 [5]
  binding to EBC-1 cells: able to bind
NCI-H1975 [6]
  binding to NCI-H1975 cells: able to bind
EBC-1 [7]
  IC50: 0.155 nM
NCI-H1975 [8]
  IC50: 0.0934 nM
MDA-MB-468
  IC50: 0.128 nM
CDX models
  tumor inhibition effects: strong tumor inhibition effects

B5: V-17-Fc (bispecific antibody)
chain 1: QVQLVESGGGLVQPGGSLRLSCAASGRTGSLHAMGWFRQAPGKERERVATLRLSDVSAVTADSVKGRFTISTDNSKNTLYLQMNSLRAEDTAVYYCTASRSPSGIRYYKPDYWGQGTLVTVSS[human IgG1 Fc with changes not printed]
chain 2: QSQLVESGGGLVKPGGSLRLSCVASGFTISRSIMSWYRQAPGKERDWVASIGSAGNTNYVDSVKGRFTISRDNAKNSLYLQMNSLRAEDTAVYYCKTTLAVSFSEYWGQGTLVTVSSGGGGSGGGGSEVQLVESGGGLVQPGGSLRLSCTASGNIFSSYHMGWFRQAPGKQREFIAYITTREITNYADSVKGRFTISRDNSKNTLYLQMNSLRAEDTAVYYCIADQSREIRRSWGQGTLVTVSS[human IgG1 Fc with changes not printed]
notes: as for B1
[3]
  Kd: 1.95 nM
  koff: 0.000154 s⁻¹
  kon: 79300 M⁻¹ s⁻¹
[4]
  Kd: 1.4 nM
  koff: 0.000137 s⁻¹
  kon: 97800 M⁻¹ s⁻¹

B6: V-20-Fc (bispecific antibody)
chain 1: EVQLVESGGGLVQPGGSLRLSCSASGTIIGTYTMAWYRQAPGKQREMVAIITPGGGSHHADSVKGRFTISRDNSKNTLYLQMSSLRAEDTAVYYCNAKARWGTTEYWGQGTLVTVSS[human IgG1 Fc with changes not printed]
chain 2: QSQLVESGGGLVKPGGSLRLSCVASGFTISRSIMSWYRQAPGKERDWVASIGSAGNTNYVDSVKGRFTISRDNAKNSLYLQMNSLRAEDTAVYYCKTTLAVSFSEYWGQGTLVTVSSGGGGSGGGGSEVQLVESGGGLVQPGGSLRLSCTASGNIFSSYHMGWFRQAPGKQREFIAYITTREITNYADSVKGRFTISRDNSKNTLYLQMNSLRAEDTAVYYCIADQSREIRRSWGQGTLVTVSS[human IgG1 Fc with changes not printed]
notes: as for B1
[3]
  Kd: 4.62 nM
  koff: 0.000199 s⁻¹
  kon: 43000 M⁻¹ s⁻¹
[4]
  Kd: 2.37 nM
  koff: 0.000365 s⁻¹
  kon: 154000 M⁻¹ s⁻¹

B7: V-23-Fc-PEG-EVC-MMAE: ADC of antibody V-23-Fc and linker-payload Mal-PEG8-EVC-PAB-MMAE (conjugate)
chain 1: EVQLLESGGGLVQPGGSLRLSCAASGLTFSYYAMAWFRQAPGKEREFVAAINWNQGNTYNTDSVKGRFTISRDNSKNTVYLQMNSLTPEDTAVYYCAVRYNQASYLVARSSDYNYWGQGTLVTVSS[human IgG1 Fc with changes not printed]
chain 2: QSQLVESGGGLVKPGGSLRLSCVASGFTISRSIMSWYRQAPGKERDWVASIGSAGNTNYVDSVKGRFTISRDNAKNSLYLQMNSLRAEDTAVYYCKTTLAVSFSEYWGQGTLVTVSSGGGGSGGGGSEVQLVESGGGLVQPGGSLRLSCTASGNIFSSYHMGWFRQAPGKQREFIAYITTREITNYADSVKGRFTISRDNSKNTLYLQMNSLRAEDTAVYYCIADQSREIRRSWGQGTLVTVSS[human IgG1 Fc with changes not printed]
EBC-1 [5]
  binding to EBC-1 cells: able to bind
NCI-H1975 [6]
  binding to NCI-H1975 cells: able to bind
EBC-1 [7]
  IC50: 0.141 nM
NCI-H1975 [8]
  IC50: 0.046 nM
MDA-MB-468
  IC50: 0.0486 nM
CDX models
  tumor inhibition effects: strong tumor inhibition effects
